In article PMC11699347 one finds binding data, which are given here for 4 substances.

The chains behind the UniProt entries cited, without tags or fusion partners. Where a name states a change or a piece, a line headed by the entry shows the natural chain unless it says otherwise. Residues count along the entry.
UniProt P97303: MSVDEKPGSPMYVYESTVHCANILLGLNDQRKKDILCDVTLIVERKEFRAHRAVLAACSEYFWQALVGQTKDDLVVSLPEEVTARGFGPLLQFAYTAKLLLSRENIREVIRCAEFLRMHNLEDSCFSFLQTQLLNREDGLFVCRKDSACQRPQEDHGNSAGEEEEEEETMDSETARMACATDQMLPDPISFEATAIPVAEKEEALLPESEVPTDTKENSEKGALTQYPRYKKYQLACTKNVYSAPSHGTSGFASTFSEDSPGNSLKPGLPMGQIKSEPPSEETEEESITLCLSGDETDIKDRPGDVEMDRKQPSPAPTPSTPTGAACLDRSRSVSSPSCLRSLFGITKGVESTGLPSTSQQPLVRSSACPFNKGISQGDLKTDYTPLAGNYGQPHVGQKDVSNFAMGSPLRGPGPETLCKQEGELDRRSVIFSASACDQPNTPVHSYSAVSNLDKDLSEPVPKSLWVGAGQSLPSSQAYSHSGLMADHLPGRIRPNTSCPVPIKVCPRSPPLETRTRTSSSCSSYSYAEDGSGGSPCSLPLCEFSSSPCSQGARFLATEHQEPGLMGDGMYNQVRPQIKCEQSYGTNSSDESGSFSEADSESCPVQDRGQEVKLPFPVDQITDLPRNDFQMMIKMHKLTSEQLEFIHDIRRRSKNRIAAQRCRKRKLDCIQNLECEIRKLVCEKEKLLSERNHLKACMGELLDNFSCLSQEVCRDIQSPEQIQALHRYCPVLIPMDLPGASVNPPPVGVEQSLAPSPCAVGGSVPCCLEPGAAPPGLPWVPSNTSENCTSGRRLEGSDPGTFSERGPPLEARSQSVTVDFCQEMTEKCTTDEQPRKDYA
GST-BACH2-IDR: residues 331-520 of P97303
UniProt Q9BYV9: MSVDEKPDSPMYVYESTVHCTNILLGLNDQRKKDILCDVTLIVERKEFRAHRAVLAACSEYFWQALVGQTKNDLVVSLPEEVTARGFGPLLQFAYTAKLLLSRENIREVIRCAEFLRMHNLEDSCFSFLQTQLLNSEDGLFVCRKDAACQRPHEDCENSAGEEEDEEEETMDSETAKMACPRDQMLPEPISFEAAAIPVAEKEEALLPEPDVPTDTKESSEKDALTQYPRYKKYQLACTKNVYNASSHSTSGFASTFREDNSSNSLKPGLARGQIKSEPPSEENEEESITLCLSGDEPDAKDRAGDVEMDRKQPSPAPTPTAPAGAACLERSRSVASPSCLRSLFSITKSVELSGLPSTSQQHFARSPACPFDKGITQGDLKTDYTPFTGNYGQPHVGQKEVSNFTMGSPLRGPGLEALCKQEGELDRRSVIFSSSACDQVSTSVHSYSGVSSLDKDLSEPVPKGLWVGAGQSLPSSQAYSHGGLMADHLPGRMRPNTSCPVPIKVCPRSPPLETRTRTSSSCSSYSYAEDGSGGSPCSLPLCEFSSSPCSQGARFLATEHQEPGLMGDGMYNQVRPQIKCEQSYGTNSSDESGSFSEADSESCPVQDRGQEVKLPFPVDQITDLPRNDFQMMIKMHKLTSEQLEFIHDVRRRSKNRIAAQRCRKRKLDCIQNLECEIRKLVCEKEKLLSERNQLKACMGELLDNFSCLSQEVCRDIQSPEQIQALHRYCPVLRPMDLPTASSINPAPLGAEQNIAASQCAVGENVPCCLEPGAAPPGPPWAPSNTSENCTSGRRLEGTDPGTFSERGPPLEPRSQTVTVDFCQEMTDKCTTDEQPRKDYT
hBACH2 BTB GAL4-DBD fusion (pFN26AhBACH2-BTB): residues 1-128 of Q9BYV9
UniProt P13864: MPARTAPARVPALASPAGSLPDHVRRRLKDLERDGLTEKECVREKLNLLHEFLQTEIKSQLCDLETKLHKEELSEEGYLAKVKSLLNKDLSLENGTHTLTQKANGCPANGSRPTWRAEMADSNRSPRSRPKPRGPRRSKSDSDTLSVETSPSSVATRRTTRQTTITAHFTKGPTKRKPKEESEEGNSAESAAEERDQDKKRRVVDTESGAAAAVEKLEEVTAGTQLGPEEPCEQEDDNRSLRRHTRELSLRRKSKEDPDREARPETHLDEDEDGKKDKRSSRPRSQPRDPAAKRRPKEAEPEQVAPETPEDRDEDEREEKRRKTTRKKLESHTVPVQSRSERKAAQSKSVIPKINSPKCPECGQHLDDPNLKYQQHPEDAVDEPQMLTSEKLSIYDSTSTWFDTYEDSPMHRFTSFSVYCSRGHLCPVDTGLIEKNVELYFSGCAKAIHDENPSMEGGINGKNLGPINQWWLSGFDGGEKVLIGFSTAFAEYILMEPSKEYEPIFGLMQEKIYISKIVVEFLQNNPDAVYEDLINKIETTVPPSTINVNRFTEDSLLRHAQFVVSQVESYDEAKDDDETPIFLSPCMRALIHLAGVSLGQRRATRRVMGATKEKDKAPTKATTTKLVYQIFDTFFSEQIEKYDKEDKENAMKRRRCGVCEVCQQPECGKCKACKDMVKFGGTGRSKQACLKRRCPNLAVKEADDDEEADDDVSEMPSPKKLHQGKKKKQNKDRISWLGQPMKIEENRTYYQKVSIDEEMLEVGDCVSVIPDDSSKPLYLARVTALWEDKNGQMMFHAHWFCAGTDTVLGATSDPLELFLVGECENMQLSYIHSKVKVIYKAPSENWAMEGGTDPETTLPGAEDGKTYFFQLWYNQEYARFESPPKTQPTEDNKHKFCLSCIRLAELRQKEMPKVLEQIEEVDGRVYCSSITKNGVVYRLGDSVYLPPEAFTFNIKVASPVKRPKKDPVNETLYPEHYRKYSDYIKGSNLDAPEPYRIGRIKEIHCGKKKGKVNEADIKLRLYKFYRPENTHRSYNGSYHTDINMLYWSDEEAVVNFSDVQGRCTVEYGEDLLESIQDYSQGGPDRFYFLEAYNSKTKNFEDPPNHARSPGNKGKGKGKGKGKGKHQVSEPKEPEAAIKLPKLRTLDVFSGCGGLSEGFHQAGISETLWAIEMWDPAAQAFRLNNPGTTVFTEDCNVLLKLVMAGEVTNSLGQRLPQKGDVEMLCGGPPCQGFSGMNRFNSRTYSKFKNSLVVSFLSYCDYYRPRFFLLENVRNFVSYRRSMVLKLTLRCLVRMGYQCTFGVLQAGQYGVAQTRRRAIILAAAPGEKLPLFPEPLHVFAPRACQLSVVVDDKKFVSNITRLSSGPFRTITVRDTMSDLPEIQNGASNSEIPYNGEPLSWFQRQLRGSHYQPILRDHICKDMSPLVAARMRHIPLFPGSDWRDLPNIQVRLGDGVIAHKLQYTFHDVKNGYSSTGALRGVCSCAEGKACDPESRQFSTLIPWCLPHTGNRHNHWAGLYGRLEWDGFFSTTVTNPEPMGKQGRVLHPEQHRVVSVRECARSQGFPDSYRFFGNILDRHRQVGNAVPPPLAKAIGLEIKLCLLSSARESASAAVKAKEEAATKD
UniProt O75376: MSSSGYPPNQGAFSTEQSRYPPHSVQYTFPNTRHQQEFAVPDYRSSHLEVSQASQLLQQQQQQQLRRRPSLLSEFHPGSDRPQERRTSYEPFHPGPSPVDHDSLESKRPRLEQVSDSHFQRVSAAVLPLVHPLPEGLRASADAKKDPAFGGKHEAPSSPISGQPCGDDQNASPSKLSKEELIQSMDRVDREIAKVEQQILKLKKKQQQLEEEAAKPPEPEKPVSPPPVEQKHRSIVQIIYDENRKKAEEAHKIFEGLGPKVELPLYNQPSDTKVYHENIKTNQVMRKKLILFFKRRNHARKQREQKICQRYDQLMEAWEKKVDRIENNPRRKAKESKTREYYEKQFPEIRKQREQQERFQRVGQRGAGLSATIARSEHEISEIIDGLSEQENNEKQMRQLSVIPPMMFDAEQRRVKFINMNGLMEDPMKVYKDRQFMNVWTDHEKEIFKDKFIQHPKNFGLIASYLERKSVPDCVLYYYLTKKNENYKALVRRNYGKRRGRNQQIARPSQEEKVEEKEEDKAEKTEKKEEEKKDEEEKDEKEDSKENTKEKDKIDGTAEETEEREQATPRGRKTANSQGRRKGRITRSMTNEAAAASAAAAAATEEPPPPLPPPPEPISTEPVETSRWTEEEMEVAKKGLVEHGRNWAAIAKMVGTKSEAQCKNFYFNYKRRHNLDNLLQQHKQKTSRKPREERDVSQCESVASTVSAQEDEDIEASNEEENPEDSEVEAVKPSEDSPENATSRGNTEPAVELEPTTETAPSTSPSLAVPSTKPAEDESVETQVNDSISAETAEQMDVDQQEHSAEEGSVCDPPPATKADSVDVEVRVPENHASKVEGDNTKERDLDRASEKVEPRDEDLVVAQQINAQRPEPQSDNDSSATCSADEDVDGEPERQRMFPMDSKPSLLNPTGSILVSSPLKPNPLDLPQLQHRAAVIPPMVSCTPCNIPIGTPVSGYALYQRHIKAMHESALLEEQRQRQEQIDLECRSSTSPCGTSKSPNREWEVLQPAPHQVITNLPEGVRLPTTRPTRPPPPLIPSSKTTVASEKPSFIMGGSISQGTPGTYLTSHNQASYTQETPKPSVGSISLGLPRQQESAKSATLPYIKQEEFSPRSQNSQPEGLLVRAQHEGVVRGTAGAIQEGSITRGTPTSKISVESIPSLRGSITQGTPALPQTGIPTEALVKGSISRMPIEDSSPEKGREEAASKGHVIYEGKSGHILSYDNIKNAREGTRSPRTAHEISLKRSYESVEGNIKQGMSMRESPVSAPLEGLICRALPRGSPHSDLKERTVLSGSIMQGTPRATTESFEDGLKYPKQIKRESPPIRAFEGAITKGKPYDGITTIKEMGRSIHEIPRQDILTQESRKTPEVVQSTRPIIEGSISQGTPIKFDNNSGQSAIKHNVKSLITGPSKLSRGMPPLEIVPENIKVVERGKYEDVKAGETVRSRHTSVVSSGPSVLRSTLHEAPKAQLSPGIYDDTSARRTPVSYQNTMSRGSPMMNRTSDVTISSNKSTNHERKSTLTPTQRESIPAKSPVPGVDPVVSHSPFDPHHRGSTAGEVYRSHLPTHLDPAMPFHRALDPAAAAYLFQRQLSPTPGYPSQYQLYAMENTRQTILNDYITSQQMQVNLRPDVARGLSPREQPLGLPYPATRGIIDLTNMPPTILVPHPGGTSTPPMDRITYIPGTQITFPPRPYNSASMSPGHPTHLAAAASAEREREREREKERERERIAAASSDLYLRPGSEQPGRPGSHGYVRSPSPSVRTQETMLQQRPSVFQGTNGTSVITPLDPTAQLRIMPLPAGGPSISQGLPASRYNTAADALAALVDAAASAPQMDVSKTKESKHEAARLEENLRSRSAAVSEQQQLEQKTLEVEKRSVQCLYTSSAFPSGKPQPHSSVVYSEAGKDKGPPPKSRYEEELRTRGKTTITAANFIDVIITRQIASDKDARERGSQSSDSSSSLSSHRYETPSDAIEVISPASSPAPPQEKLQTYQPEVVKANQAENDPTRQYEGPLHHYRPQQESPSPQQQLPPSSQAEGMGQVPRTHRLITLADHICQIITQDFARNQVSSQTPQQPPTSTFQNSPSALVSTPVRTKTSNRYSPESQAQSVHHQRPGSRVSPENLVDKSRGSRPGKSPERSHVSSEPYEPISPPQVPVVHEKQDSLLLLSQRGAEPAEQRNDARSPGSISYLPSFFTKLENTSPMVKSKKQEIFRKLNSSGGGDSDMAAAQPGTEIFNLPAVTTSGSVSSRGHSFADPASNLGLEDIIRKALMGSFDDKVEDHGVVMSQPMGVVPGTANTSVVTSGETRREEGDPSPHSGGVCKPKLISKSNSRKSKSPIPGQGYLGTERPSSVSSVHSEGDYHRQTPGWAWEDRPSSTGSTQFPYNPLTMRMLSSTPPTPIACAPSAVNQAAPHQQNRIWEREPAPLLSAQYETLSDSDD

The target in assay [1] is FLAG-HA-BACH2-IDR (mouse) (UniProt P97303). Description: co-IP; ReCLIP anti-FLAG purified samples from BAL17 cells expressing FLAG-HA-BACH2-IDR, immunoblot with anti-TBK1 or anti-DNMT1.
Assay [2] has as its target GST-BACH2-IDR (mouse) (UniProt P97303). Nature of the assay: pull-down; 2 μg GST-BACH2-IDR on Glutathione Sepharose beads with BAL17 whole cell lysate, with or without heme, 2 h at 4°C; 20 mM HEPES pH 7.0, 50 mM NaCl; immunoblot; only the target purified. For orientation: A western blot detects proteins with antibodies after separation by electrophoresis.
In assay [3] the target is hBACH2 GAL4-DBD fusion (pFN26A-hBACH2) (human) (UniProt Q9BYV9). Description: two-hybrid; mammalian two-hybrid in HEK293T as above, with co-expressed wild-type human TBK1 (pCAG-hTBK1).
For assay [4] the target is unchanged. Nature of the assay: two-hybrid; mammalian two-hybrid in HEK293T: GAL4-DBD fusion (pFN26A) and VP-16 AD fusion (pFN10A), pGL4.35-9xGAL4UAS-Luc reporter; also with co-expressed TBK1 or TBK1(S172A) and the TBK1 inhibitor MRT67307.
Assay [5] has as its target T1, FLAG-FBXO22 (mouse) (UniProt Q78JE5).
T1 sequence: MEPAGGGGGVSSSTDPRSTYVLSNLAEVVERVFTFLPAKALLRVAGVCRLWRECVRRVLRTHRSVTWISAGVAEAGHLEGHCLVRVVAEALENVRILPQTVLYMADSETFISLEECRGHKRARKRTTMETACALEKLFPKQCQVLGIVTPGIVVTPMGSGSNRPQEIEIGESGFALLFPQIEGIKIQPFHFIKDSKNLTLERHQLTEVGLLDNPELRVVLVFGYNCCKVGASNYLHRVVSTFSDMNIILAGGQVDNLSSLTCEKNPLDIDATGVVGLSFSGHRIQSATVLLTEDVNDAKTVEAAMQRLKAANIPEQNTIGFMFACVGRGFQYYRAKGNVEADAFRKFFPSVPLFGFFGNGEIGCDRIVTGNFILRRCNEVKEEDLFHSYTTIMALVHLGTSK
Description: co-IP; FLAG-FBXO22 and BACH2 overexpressed in HEK293T; immunoprecipitation with anti-FLAG, immunoblot with anti-FLAG or anti-BACH2.

The target in assay [6] is hBACH2 BTB GAL4-DBD fusion (pFN26AhBACH2-BTB) (human) (UniProt Q9BYV9). Description: two-hybrid; mammalian two-hybrid in HEK293T: GAL4-DBD fusion (pFN26A) and VP-16 AD fusion (pFN10A), pGL4.35-9xGAL4UAS-Luc reporter; also with co-expressed TBK1 or TBK1(S172A) and the TBK1 inhibitor MRT67307.

No constants are given. Whether binding was seen depends on the method and setting. For part of these data: In cells and extracts the contact can be indirect. Some results given as binding are weak or reduced against the parent protein; the word gives no strength. For part of these data: Where a sequence is shown, tags or fusion partners need not be part of it.

On to “DNA (cytosine-5)-methyltransferase 1 (from UniProt P13864 1-1620) (enzyme)”, for which the binding entry in assay [1] and in assay [2] was “binds” throughout.
For “hNCOR1 VP-16 AD fusion (pFN10A-hNCOR1) (from UniProt O75376 1-2440)”, the binding result was “no binding (condition: with co-expressed wild-type TBK1)” in assay [3] and “binds” in assay [4].
As to “BACH2 overexpressed in HEK293T cells (from UniProt P97303 1-839)”, the binding entry in assay [5] is recorded as “binds”.
In the case of “hFBXO22 VP-16 AD fusion (pFN10A-hFBXO22) (from UniProt Q8NEZ5-1 1-403)”, the binding result in assay [6] is listed as “binds”.
